Results: article PMC4336329 (PLoS ONE, 2015)
About 2,200 (0.71%) of roughly 310,000 compounds showed an effect of 50% or more. Effects have a minus sign here. This is one part of the list.

Each compound was assayed against human ether-à-go-go-related gene (hERG) potassium channel (human, UniProt Q12809) (assay: primary screen, population patch clamp on CHO cells stably expressing hERG).
Chain of human ether-à-go-go-related gene (hERG) potassium channel (Q12809 whole entry, looked up): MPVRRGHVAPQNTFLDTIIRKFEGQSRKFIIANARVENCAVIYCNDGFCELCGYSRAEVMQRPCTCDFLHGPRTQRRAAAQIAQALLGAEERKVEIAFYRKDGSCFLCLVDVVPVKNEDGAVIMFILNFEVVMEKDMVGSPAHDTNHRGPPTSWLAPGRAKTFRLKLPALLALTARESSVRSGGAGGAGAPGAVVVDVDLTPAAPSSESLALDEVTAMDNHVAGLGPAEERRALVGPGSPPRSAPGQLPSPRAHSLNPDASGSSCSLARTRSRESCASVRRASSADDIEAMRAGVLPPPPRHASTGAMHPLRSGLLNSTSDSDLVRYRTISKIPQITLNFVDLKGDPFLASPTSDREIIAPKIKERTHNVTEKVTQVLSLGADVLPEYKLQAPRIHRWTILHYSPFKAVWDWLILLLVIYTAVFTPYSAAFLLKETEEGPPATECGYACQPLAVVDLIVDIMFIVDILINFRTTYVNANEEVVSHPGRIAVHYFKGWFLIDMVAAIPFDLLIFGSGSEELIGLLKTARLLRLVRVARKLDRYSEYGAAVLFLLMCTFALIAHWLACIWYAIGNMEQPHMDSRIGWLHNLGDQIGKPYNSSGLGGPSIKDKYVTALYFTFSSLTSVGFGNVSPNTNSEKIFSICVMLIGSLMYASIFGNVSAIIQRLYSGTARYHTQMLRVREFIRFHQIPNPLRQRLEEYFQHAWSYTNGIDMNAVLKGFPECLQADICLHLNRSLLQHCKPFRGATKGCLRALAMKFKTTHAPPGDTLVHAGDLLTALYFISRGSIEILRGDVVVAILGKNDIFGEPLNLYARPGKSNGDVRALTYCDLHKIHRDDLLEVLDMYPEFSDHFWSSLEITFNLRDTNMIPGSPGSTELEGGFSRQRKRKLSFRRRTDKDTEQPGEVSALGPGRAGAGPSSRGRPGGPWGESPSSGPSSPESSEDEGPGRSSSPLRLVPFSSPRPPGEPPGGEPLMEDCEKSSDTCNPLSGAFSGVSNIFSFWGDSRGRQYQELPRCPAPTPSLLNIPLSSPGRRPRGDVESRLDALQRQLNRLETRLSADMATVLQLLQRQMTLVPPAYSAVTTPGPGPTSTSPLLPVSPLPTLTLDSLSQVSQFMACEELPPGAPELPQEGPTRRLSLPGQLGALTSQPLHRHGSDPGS

Compound	hERG current change (%, negative = inhibition) at 1uM
COc1ccc2c(c1)C(=NNc1ccc(C(=O)O)cc1)c1cc(OC)ccc1-2	-2.5%
O=C(c1ccc(S(=O)(=O)N2CCC(c3nc4ccccc4s3)CC2)cc1)N1CCOCC1	9.13%
Cc1ccc(-c2[nH]ncc2/C=N/n2c(COc3ccccc3)nc3ccccc3c2=O)cc1	10.9%
CCOC(=O)c1ccc2c(c1)n(CC)c(/C=C/N(C)c1ccccc1)[n+]2CC.[I-]	-66.2%
Cc1cccc2sc(N(CCCN3CCOCC3)C(=O)CS(=O)(=O)c3ccc(F)cc3)nc12.Cl	12.6%
Cc1c(C(=O)NN)nn(-c2ccc(F)cc2)c(=O)c1C#N	12.3%
Cn1cc[n+](C)c1P(=S)(c1ccccc1)c1ccccc1.[Cl-]	10.4%
CCCN1c2cccc3cccc(c23)S1(=O)=O	5.01%
COc1cc2c(cc1NC(=O)COC(=O)C1CC(=O)N(Cc3ccco3)C1)oc1ccccc12 (stereo not shown)	11.4%
CN1CCN(C(=O)C23CC4CC(CC(C4)C2)C3)CC1	9.93%
CCc1cc(=O)[nH]c(SCCC(F)=C(F)F)n1	12.6%
COc1ccccc1OCC(=O)NCCS(=O)(=O)N1CCN(c2ccccc2)CC1	-16.3%
CN=C1CC(C)(C)CC(=O)/C1=C(/O)CCCN1C(=O)c2ccccc2C1=O	10.4%
CC1(C)CC(CCC(=O)NC(=S)Nc2ccccc2Cl)C(=O)O1 (stereo not shown)	12.9%
CCN1CCN(CCCNC(=O)CS(=O)(=O)Cc2nc(-c3cccc(OC)c3)oc2C)CC1	-15.1%
Cc1occc1-c1nnc(SCC(=O)Nc2ccc(F)cc2)n1C	18.2%
Cc1noc(C)c1CSc1nc2ccccc2c(=O)n1-c1ccccc1	2.24%
Cc1ccc2c(c1)N(CC(=O)NC1CCCCC1)C(=O)c1cccnc1O2	2.93%
c1ccc2c(c1)nc(NCCN1CCOCC1)c1nncn12	14.2%
Oc1c(CN2CCOCC2)cc(-c2ccccc2)cc1CN1CCOCC1	8.64%
O=C(CN1C(=O)c2cccnc2Oc2ccc(Cl)cc21)Nc1ccccc1F	-4.3%
O=C(CCC1CCCN(Cc2ccncc2)C1)NCc1ccc(F)c(F)c1 (stereo not shown)	0.967%

Compound	hERG current change (%, negative = inhibition) at 1uM
COc1ccc(CSCC(=O)NCCC(C)C)cc1	16.7%
COc1cc2c(c(OC)c1OC)-c1ccc(O)cc1[C@@H](NC(C)=O)CC2	12.5%
CCN(C(=O)CN1CCOCC1)C1(C)C(=O)c2ccccc2C1=O.Cl	9.74%
CSCCC(NC(=O)c1ccccc1)C(=O)NCc1ccco1 (stereo not shown)	-5.76%
O=C(COC(=O)CNS(=O)(=O)c1ccccc1)Nc1ccc(Cl)cn1	1.6%
Cc1cc(C)nc(NNC2=CC(=O)CC(C)(C)C2)n1	11.3%
COc1ccc(C(=O)N[C@H](C(=O)NCc2cccs2)C(C)C)cc1	12%
COc1cc(/C=C(/C)[N+](=O)[O-])ccc1OCc1ccccc1Cl	13.1%
CN(C)/C=C(/C(=O)c1ccccc1Cl)S(=O)(=O)c1ccccc1	11.4%
O=C(NCCc1ccccn1)c1nc(Cn2cc(Br)cn2)no1	8.89%
O=C(COC(=O)/C=C/c1ccccc1)NCC1CCCO1 (stereo not shown)	12.3%
COc1ccc(CCNC(=O)c2ccc(CS(=O)(=O)c3ccc(C)cc3)o2)cc1OC	9.14%
c1ccc(N2CCN(c3ncccn3)CC2)cc1	4.18%
CC1CC(C)CN(CCCNS(=O)(=O)c2cc(Br)cc3c2N(C(=O)C2CC2)CC3)C1 (stereo not shown)	3.87%
C[N+]1(CC(O)c2ccccc2)CCCCCC1.[I-] (stereo not shown)	11.5%
c1ccc(CN2CCCC3(CCCN(Cc4nc(COc5ccccc5)no4)C3)C2)cc1 (stereo not shown)	-2.33%
CCCCOc1ccccc1C1NC(=O)NC(C)=C1C(=O)OCc1ccco1 (stereo not shown)	12.5%
CC(=O)Nc1ccc(S(=O)(=O)N2C(C)CCCC2C)cc1 (stereo not shown)	9.71%
N#C/C(=C\c1ccc(-c2cccc(Cl)c2)o1)C(=O)Nc1cccc2cccnc12	17.1%
CCOC(=O)N1CCC(Nc2c(Nc3cccc(CC)c3)c(=O)c2=O)CC1	0.738%
O=C(NNS(=O)(=O)c1ccccc1)c1cccnc1	3%
